Test results published in US20060104971A1, “Multivalent lymphotoxin beta receptor agonists and therapeutic uses thereof” (Biogen Idec MA Inc., priority 2002, published 2006).

B1: huCBE11/huBHA10 Bispecific-2: scFv.huCBE11 fused by 2× Gly4Ser linker to human IgG1 Fc, fused at Fc C-terminus to scFv.huBHA10; SEQ ID NO: 6 (protein)
chain: EVQLVESGGGLVKPGGSLRLSCAASGFTFSDYYMYWFRQAPGKGLEWVATISDGGSYTYYPDSVKGRFTISRDNAKNSLYLQMSSLRAEDTAVYYCAREENGNFYYFDYWGQGTTVTVSSGGGGSGGGGSGGGGSDIQMTQSPSSLSASVGDRVTITCKAGQDIKSYLSWYQQKPGKAPKLLIYYATRLADGVPSRFSGSGSGTDYTLTISSLQPEDFATYYCLQHGESPWTFGGGTKLEIKGGGGSGGGGS[left out - human IgG1 Fc with changes]GGGSGGGGSQVQLVQSGAEVKKPGSSVKVSCKASGYTFTTYYLHWVRQAPGQGLEWMGWIYPGNVHAQYNEKFKGRVTITADKSTSTAYMELSSLRSEDTAVYYCARSWEGFPYWGQGTTVTVSSGGGGSGGGGSGGGGSDIQMTQSPSSLSASVGDRVTITCKASQNVGINVAWYQQKPGKAPKSLISSASYRYSGVPSRFSGSGSGTDFTLTISSLQPEDFATYFCQQYDTYPFTFGQGTKVEIK
B2: CBE11 pentamer: chimeric CBE11-huIgG1 heavy chain with IgM C-terminal tailpiece plus chimeric CBE11 light chain; ten antigen-binding sites; SEQ ID NO: 18 and 20 (antibody)
heavy: EVQLVESGGGLVKPGGSLKLSCAASGFTFSDYYMYWFRQTPEKRLEWVATISDGGSYTYYPDSVKGRFTISRDNAKNNLYLQMSSLKSEDTAMYYCVREENGNFYYFDYWGQGTTVTVSS[left out - human IgG1 constant region with changes and a few adjoining residues]
light: DIKMTQSPSSMYASLGERVTITCKAGQDIKSYLSWYQQKPWKSPKILIYYATRLADGVPSRFSGSGSGQDYSLTISSLESDDTATYYCLQHGESPWTFGGGTKLEIKRTVAAPSVFIFPPSDEQLKSGTASVVCLLNNFYPREAKVQWKVDNALQSGNSQESVTEQDSKDSTYSLSSTLTLSKADYEKHKVYACEVTHQGLSSPVTKSFNRGEC

Columns and labels:
[1] = test system: surface LT-β-R on COS7 cells; conditions: flow cytometry
[2] = biological target: T1, surface LT-β-R on HT29 cells (Homo sapiens, UniProt P36941); experiment: Flow cytometry staining of surface LT-β-R on HT29 cells; type: binding
T1 construct: endogenous in cells; host or cells: HT29
T1 sequence (P36941 31-435): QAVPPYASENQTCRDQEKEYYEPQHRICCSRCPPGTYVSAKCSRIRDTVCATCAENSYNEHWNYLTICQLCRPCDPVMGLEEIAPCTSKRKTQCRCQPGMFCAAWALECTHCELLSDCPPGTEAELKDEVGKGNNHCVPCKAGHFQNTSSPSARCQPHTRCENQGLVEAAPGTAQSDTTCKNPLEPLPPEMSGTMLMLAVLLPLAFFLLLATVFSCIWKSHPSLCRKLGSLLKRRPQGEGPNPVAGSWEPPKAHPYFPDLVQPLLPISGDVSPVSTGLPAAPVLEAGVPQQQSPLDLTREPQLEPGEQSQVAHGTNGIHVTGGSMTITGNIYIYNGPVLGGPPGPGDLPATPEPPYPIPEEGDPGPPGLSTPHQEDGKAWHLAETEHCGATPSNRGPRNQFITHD

[3] = test system: HT29 adenocarcinoma cell line; experiment: HT29 tumor cell growth inhibition (MTT) with interferon gamma; type: cell-based; conditions: HT29 cells, human interferon gamma 80 U/ml, 4 days in culture, MTT staining; lower absorbance = more growth reduction
[4] = Avidity of secreted chCBE11 with IgM tailpiece; type: binding; conditions: secreted by 293-EBNA cells co-transfected with pEAG995 and pEAG982

| Molecule | ability to stain surface LT-β-R on COS7 cells [1] | ability to stain surface LT-β-R on HT29 cells [2] | minimum A450 (plateau corresponding to maximum of activity) [3] | avidity [4] |
| --- | --- | --- | --- | --- |
| B1 | ability to stain | ability to stain | – | – |
| B2 | – | – | 0.3 | greatly enhanced avidity |
